Experimental data from publication PMC4336329 (PLoS ONE, 2015).
The campaign covered roughly 310,000 compounds. About 14,000 (4.5%) showed an effect of 50% or more. Effects have a minus sign here. Some of the results follow.

Target: human ether-à-go-go-related gene (hERG) potassium channel (human, UniProt Q12809)
Assay: primary screen, population patch clamp on CHO cells stably expressing hERG
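Also: peak tail current of the secondary pulse compared with the same well before compound.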

Sequence of human ether-à-go-go-related gene (hERG) potassium channel (Q12809 whole entry, looked up): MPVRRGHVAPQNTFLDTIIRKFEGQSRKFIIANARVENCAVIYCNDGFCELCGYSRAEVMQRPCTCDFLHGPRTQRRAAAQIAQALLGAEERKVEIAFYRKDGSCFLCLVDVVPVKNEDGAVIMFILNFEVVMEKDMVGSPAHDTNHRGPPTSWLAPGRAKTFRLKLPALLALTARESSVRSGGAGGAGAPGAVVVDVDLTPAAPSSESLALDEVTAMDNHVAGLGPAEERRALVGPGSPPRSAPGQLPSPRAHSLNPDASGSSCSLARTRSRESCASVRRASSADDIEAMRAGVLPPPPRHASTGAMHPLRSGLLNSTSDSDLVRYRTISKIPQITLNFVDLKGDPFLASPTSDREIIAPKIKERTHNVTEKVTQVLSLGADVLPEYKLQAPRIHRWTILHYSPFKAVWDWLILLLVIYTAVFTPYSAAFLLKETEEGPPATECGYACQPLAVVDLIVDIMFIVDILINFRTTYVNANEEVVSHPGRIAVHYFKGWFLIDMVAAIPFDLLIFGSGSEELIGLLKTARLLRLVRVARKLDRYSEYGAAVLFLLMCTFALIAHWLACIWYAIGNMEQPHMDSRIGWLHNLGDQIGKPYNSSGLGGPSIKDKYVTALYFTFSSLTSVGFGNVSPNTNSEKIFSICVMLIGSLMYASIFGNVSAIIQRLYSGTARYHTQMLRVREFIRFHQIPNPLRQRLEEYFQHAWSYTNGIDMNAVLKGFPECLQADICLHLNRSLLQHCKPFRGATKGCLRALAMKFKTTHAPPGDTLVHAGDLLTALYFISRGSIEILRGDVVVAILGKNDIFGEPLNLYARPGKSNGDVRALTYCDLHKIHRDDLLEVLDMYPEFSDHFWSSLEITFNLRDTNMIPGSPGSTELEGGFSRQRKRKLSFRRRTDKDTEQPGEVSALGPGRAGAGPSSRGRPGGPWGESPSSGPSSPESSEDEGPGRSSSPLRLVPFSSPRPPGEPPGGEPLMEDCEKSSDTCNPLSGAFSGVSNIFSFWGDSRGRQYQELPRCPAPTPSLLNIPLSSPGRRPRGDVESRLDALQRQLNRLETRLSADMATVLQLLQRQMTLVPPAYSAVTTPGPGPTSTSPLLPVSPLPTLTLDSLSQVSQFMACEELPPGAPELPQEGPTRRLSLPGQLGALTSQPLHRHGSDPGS

SMILES	hERG current change (%, negative = inhibition) at 10uM
COc1ccc(NC(=S)NCCc2ccccc2)c(C)c1	-1.17%
COc1cccc(-c2nc(-c3ccccn3)no2)c1OC	0.968%
COCc1cc(C)nc(SCC(=O)N2CCC(C)CC2)c1C#N	2.86%
CC1(C)C(C=C(Cl)Cl)C1C(=O)N(Cc1cccc(Cl)c1)C1CCS(=O)(=O)C1 (stereo not shown)	4.24%
CC(C)OC(=O)C1=C(N)N2C(=O)CSC2=C(C(=O)OC(C)C)C1	0.706%
CCOc1ccccc1/C=N/Nc1nc2c(N)ncnc2n1[C@H]1O[C@@H](CO)[C@H](O)[C@@H]1O	-9.61%
CCOc1cc(N2CCOCC2)c(OCC)cc1NC(=O)C1CC(=O)N(c2ccccc2OCC)C1 (stereo not shown)	3.54%
O=C(NCc1ccc(F)c(F)c1)C1CCC(=O)N(CC2CCCCC2)C1 (stereo not shown)	-17.4%
O=C(Cc1ccc([N+](=O)[O-])cc1)N1CCN=C1SCc1ccccc1	-7.33%
CC(C)N1CCN(Cc2cnc(-c3ccccc3)s2)CC1CCO (stereo not shown)	-9.9%
CCC(=O)Nc1c(C(=O)Nc2ccc3c(c2)OCCO3)oc2ccccc12	2.97%
CS(=O)(=O)N1CCC(C(=O)N2CCN(Cc3ccccc3)CC2)CC1	26.7%
O=C(CN1C(=O)C2(OCCO2)c2ccccc21)c1ccc(Br)cc1	-8.72%
CC(=O)c1c(N2CCOCC2)nc(=O)n(-c2ccccc2)c1C	11.8%
Cc1cccc(N(C)S(=O)(=O)c2c(C)noc2C)c1	-5.07%
CCc1cccc(CC)c1NC(=O)CO/N=C(\C)c1cccs1	-5.52%
COc1cc(/C=C2\SC(=S)N(C(C(=O)O)c3ccccc3)C2=O)cc(OC)c1OC (stereo not shown)	21.2%
COC(=O)C1=C(O)C2(C(=O)O)CC(C(=O)OC)=C(O)C(C(=O)O)(C1)C2	4.75%
CC(=O)c1cccc(NC(=O)CC2S/C(=N/N=C/c3cccs3)NC2=O)c1 (stereo not shown)	-27.6%
O=c1[nH]c(=O)n(C2C[C@H](O)[C@@H](CO)O2)cc1C(F)(F)F (stereo partly shown)	12.2%
COC(=O)CN1C(=O)S/C(=C/c2cc(C)n(C)c2C)C1=O	-14.1%
CN1C(=O)N(C)C(=O)C2(Cc3cc(NC(=O)c4ccccc4)ccc3N3CCCC32)C1=O (stereo not shown)	25.9%

SMILES	hERG current change (%, negative = inhibition) at 10uM
CC1=C(C)CC(C(=O)Nc2cccc([N+](=O)[O-])c2)C(C(=O)O)C1 (stereo not shown)	0.0439%
O=c1c(Cl)c(N2CCN(S(=O)(=O)c3ccc(F)cc3)CC2)cnn1-c1cccc(Cl)c1	-29.4%
Cc1c(C(=O)NCC2CCCO2)cccc1[N+](=O)[O-] (stereo not shown)	6.08%
Cc1ccc(-c2nnc(SCC(=O)NNC(=O)COc3cccc(C)c3)n2C)cc1	-4.33%
CC12CCC(=O)N1C(C(=O)NNC(=O)c1ccc(F)cc1)CS2 (stereo not shown)	19%
N#CCSc1ncccc1-c1nc2ccccc2[nH]1	1.01%
Cc1oc(-c2ccccc2Cl)[n+]([O-])c1C.Cl	8.48%
Cn1cc2ccc([N+](=O)[O-])cc2n1	6%
CCOC(=O)C1=C(COC(=O)[C@H](C)NS(=O)(=O)c2ccccc2F)NC(=O)NC1C (stereo partly shown)	13.3%
CC1CC1C(=O)OCC(=O)c1c(N)n(C)c(=O)n(C)c1=O (stereo not shown)	4.1%
CCOC(=O)c1ccc(S(=O)(=O)N2CCC(C(=O)OCC)CC2)cc1	-30.8%
CCc1ccc2nc(N=C(N)N)nc(C)c2c1	-14.3%
Cc1c(NP(=O)(C(C)(C)C)C(C)(C)C)c(=O)n(-c2ccccc2)n1C	26.4%
Cc1cc2c(C)nc(N/N=C/c3ccccc3)nc2o1	-27.6%
Cc1nnc(SCC(=O)NC(C)c2ccccc2)[nH]c1=O (stereo not shown)	12%
COC(=O)c1ccc(N=Cc2c(C(F)(F)F)[nH]n(C)c2=O)cc1	-13.6%
O=C(c1ccco1)N1CCN(C(=O)c2cn(-c3ccccc3)nc2-c2ccccc2)CC1	-86.5%
COc1ccccc1N(CC(=O)NCc1ccc2c(c1)OCO2)C(=O)CCC(=O)Nc1nccs1	7.57%
CCCCC(=O)Nc1cc(NC(=O)CCCC)cc(C(=O)O)c1	10.4%
CCCN(CC(=O)Nc1ccc(F)c(F)c1F)C(=O)c1ccc(=O)n(Cc2ccccc2)n1	-15.1%
O=C1[C@@H]2[C@@H]3C[C@@H]([C@H]4ON=C(c5ccc(OCc6ccccc6)cc5)[C@@H]34)[C@@H]2C(=O)N1c1ccc2c(c1)OCO2	12.4%
O=C(O)c1ccc(-c2nc(-c3ccc(Cl)c(Cl)c3)cs2)cc1	-19.4%

SMILES	hERG current change (%, negative = inhibition) at 10uM
CCOC(=O)COn1c(=O)c(-c2ccc(Br)cc2)[n+]([O-])c2ccccc21	12.6%
CCOc1cc(-c2nnc(NC(=O)C3=COCCO3)o2)cc(OCC)c1OCC	-23.4%
COc1ccc(NC(=O)CN(C)S(=O)(=O)c2ccccc2)cc1	2.13%
COc1ccc(C)cc1NC(=O)NC1CCCCCCC1	21%
CCN(CCO)c1ccc(N=Nc2cc(C)[nH]n2)cc1	10.6%
C=CCOc1ccc(-c2nc3c(c(=O)[nH]c(=O)n3CCCC)n2C)cc1OC	31.8%
CC(C)(C#N)N([O-])C=C[N+](=O)C(C)(C)C#N	12%
CCC1CCCCN1CCCNC(=O)C1CCC(CNS(=O)(=O)c2c(C)cc(C)cc2C)CC1 (stereo not shown)	-68.3%
CN(Cc1cccc(Cl)c1)C(=O)C1CCC(=O)N(C2CC2)C1 (stereo not shown)	1.31%
O=C(NC1CC1)C1CSC(c2cccnc2)=N1 (stereo not shown)	-12.5%
CC(C)Oc1ccc(/C(O)=C2/C(=O)C(=O)N(CCN(C)C)C2c2ccco2)cc1 (stereo not shown)	14.9%
Cc1nc2c(sc3nc4c(cc32)COC(C)(C)C4)c(=O)n1Cc1ccccc1	-10.6%
Cc1ccc(S(=O)(=O)NCC(=O)OC(C)C(=O)Nc2ncc(Cl)cc2Cl)cc1 (stereo not shown)	-13.6%
COc1ccc(Cl)cc1S(=O)(=O)N1CCC(C(=O)NCCc2ccccc2)CC1	-9.13%
CCc1nc2sc3c(c2c(=O)o1)CCCC3	20.4%
COc1ccc(C(=O)N/N=C(\C)c2cccc(NC(=O)c3ccc(F)cc3)c2)c(OC)c1	-40.1%
COc1ccccc1CNC(=O)[C@@H](NC(=O)C1CCN(C(=O)[C@@H]2CCCN2C(=O)OC(C)(C)C)CC1)C(C)C	9.25%
Cc1sc2ncn(CC(=O)NCCCOC(C)C)c(=O)c2c1S(=O)(=O)N1CCN(c2ncccn2)CC1	14.4%
Cc1c(Cl)cccc1NC(=O)CNC(=O)c1ccccc1F	3.71%
O=C(COC(=O)c1ncc(Cl)c(Cl)c1Cl)NCCc1ccccc1	5.32%
CCn1c(SCC(=O)Nc2ccc(S(N)(=O)=O)cc2)nnc1-c1cccc(OC)c1	-8.52%
C/C(=N/NC(=O)c1ccc(Br)o1)c1ccncc1	7.82%

SMILES	hERG current change (%, negative = inhibition) at 10uM
Cc1cccc(NC(=O)C2CCCN2C(=O)OCC(C)C)c1C (stereo not shown)	4.87%
CCNC(=S)NNC(=O)CSc1nc2ccccc2[nH]1	17.2%
O=C(NCCCN1CCOCC1)c1cc(Cl)ccc1Cl	11.5%
O=C(NCCC1=CCCCC1)Nc1ccc2nsnc2c1	8.84%
COc1ccc2c(-c3ccccc3)cc(=S)[nH]c2c1	12.1%
CCCCCCn1c(SCCOC)nc2c1c(=O)[nH]c(=O)n2C	-59.8%
CCN1CCN(CC(=O)c2ccc(C)cc2)CC1	8.76%
O=C(Cc1ccccc1)Nn1c(O)c(/C=C2\C=Nc3ccccc32)sc1=S	13.4%
COc1cc(NC(=O)COC(=O)[C@@H]2CCCN2S(=O)(=O)c2ccc(Cl)cc2)cc(OC)c1OC	-12.8%
CCOC(=O)N1CCN(C(=O)COc2ccc(Cl)cc2C)CC1	-20.5%
COc1ccc(C(=O)Nc2ccc(S(=O)(=O)NCc3ccco3)cc2)cc1OC	2.6%
COc1ccc(/C(N)=N/OC(=O)Oc2ccccc2)cc1	18%
CCOc1c2ccc(C(=O)NC3CCCc4ccccc43)cc2nn1CC (stereo not shown)	-1.49%
CC(C)(C)OC(=O)N1CCC[C@H]1c1nnc(SCc2c(F)cccc2Cl)o1	2.16%
Cc1nnc(NC(=O)C(C)Sc2nnc(CNC(=O)c3ccccc3F)n2C)s1 (stereo not shown)	1.93%
Cc1cccc(C)c1NC(=O)CSc1nnc(C)c(=O)[nH]1	15.1%
Cc1ccc(C(c2sc3ncnn3c2O)N2CCCCC2)cc1 (stereo not shown)	-4.53%
O=C(NCCCN1CCc2ccccc2C1)Nc1ccc(Br)cc1	-71.7%
Cc1nnc(N/N=C\c2ccc(-c3ccccc3[N+](=O)[O-])o2)n1N	-32.4%
Cc1c(C(=O)N2CCCCC2)c(S(=O)(=O)N(C)Cc2ccco2)c(C)n1C	-3.94%
CCOc1ccccc1NC(=O)C1CCN(C(=O)c2cccs2)CC1	18.3%
O=c1cc[nH]c2ccc(OC(F)(F)F)cc12	18.4%
